The densities may have been worked out from excess volumes.
Assay: xn = mol fraction of the nth substance listed
Conditions: 101 kPa

CCCC[n+]1ccn(C)c1.F[B-](F)(F)F + O
mass density [kg/m3]
Conditions | 293.15 K | 298.15 K | 303.15 K | 308.15 K | 313.15 K | 318.15 K | 323.15 K
x2 = 0.0964 | – | – | – | 1186.7 | 1183.1 | – | 1176
x2 = 0.2639 | 1192.4 | – | 1185.1 | 1181.5 | 1177.9 | – | 1170.7
x2 = 0.3901 | 1186.7 | – | 1179.4 | 1175.8 | 1172.1 | – | 1164.9
x2 = 0.5121 | 1179.2 | 1175.6 | 1171.7 | 1168.1 | 1164.4 | 1160.8 | 1157
x2 = 0.6369 | 1168 | 1164.2 | 1160.5 | – | 1153.1 | – | 1145.6
x2 = 0.7002 | 1159.9 | – | 1152.4 | – | 1144.9 | 1141.2 | 1137.4
x2 = 0.7456 | 1152.5 | 1148.7 | 1145 | – | 1137.5 | 1133.7 | 1130
x2 = 0.7866 | 1144.7 | 1139.4 | 1137.5 | 1133.6 | 1129.8 | 1126 | 1122.4
x2 = 0.8493 | – | – | 1120.7 | 1117 | – | 1109.6 | –
x2 = 0.9 | 1106.3 | – | – | 1096.1 | – | – | –
x2 = 0.9252 | 1090.4 | 1087.3 | – | 1080.9 | 1077.6 | 1074.2 | 1070.8
x2 = 0.9496 | 1070.6 | – | 1065 | 1062 | 1059 | 1055.8 | –
x2 = 0.9744 | 1043.1 | 1040.9 | 1038.6 | 1036.1 | – | 1030.8 | –

Reference: a compilation of properties of binary mixtures (doi:10.1007/s10953-014-0137-8)
